Measured values taken from publication PMC10229581.
Results are given in words; binding and its absence hold for the method and conditions named. Binding seen in cells or lysates may run through a third protein. Some entries that bind do so weakly or less than the wild type. Values belong to the molecule of their own block, whether it stands above or below them.

Sequences of proteins named here, by UniProt entry; tags and fusion partners are left off. Residues count along the entry.
UniProt Q9Z2G6, residues 22-790: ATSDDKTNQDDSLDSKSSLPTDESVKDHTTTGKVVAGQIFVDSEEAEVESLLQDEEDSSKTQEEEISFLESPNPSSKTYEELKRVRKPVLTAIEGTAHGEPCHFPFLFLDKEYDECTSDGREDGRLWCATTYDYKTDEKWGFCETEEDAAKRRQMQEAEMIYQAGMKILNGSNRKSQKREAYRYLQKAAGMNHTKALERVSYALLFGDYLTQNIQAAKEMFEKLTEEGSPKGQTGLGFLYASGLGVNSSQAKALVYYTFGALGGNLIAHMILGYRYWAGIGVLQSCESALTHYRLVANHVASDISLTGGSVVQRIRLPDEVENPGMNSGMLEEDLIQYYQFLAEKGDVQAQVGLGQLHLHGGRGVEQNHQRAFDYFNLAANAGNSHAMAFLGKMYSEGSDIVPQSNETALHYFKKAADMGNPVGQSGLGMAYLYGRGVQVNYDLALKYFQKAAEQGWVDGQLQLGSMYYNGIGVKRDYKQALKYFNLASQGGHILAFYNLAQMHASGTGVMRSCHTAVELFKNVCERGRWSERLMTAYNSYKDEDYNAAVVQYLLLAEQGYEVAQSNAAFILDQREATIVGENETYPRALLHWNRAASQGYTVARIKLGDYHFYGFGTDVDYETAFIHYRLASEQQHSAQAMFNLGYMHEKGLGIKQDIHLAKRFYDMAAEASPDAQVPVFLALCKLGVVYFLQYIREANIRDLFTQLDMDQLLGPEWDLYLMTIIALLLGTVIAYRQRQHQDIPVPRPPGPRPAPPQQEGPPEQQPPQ
UniProt P20029, residues 20-655: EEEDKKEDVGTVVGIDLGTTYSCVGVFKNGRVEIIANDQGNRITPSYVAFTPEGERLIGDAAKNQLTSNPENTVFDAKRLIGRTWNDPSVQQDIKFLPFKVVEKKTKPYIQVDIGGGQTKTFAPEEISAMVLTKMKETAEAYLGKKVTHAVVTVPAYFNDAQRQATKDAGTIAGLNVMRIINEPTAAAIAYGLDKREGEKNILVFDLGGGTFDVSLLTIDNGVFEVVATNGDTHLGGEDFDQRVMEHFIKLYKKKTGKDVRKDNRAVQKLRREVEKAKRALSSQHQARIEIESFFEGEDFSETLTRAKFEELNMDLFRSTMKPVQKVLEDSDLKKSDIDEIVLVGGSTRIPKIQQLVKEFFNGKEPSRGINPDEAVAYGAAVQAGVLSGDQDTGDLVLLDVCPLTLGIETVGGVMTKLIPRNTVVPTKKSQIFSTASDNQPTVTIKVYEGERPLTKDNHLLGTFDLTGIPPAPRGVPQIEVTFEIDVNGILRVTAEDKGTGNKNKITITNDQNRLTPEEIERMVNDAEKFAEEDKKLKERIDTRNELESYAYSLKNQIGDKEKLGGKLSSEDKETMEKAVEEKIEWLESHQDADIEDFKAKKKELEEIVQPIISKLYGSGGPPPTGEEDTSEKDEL

Columns and labels:
[1] = biological target: T1, lipoprotein lipase (mouse (endogenous in WAT, BAT and differentiated adipocytes)) (UniProt P11152); experiment: co-IP; IP of endogenous LPL from differentiated Hrd1^–/– adipocytes, immunoblot for SEL1L
T1 sequence: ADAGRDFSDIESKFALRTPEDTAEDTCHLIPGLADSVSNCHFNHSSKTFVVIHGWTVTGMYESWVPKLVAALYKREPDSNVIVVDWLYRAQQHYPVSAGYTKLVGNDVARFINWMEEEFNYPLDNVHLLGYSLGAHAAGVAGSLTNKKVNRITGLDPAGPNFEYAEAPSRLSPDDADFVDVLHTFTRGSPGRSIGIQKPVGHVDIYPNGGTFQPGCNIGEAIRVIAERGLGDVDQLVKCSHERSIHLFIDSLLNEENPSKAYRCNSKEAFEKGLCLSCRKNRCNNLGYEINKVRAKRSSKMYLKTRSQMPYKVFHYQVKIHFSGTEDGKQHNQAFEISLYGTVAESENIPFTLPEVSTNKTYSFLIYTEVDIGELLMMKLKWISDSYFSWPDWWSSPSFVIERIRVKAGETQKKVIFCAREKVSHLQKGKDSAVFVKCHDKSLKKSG

[2] = biological target: T1, lipoprotein lipase (mouse (endogenous in WAT, BAT and differentiated adipocytes)); experiment: co-IP; IP of endogenous LPL from differentiated WT adipocytes, immunoblot for SEL1L
[3] = biological target: T1, lipoprotein lipase (mouse (endogenous in WAT, BAT and differentiated adipocytes)); experiment: co-IP; IP of endogenous LPL from gonadal WAT lysate of DKO (Sel1L^AdipCre;Atg7^AdipCre) mice, immunoblot; 1% Triton X-100, 150 mM NaCl, 25 mM Tris-HCl pH 7.5, 4 °C
[4] = biological target: T1, lipoprotein lipase (mouse (endogenous in WAT, BAT and differentiated adipocytes)); experiment: co-IP; IP of endogenous LPL from gonadal WAT lysate of WT mice, immunoblot; 1% Triton X-100, 150 mM NaCl, 25 mM Tris-HCl pH 7.5, 4 °C

- binding [1]: binds
Molecule: SEL1L (from UniProt Q9Z2G6 22-790)
- binding [2]: no binding (condition: in WT adipocytes (HRD1 present))

- binding [3]: binds
- binding [4]: no binding (condition: in WT WAT)
Molecule: HSPA5/BiP (from UniProt P20029 20-655)

- binding [3]: binds
- binding [4]: no binding (condition: in WT WAT)
B1: procollagen-Lysine,2-oxoglutarate 5-dioxygenase 3 (enzyme, UniProt Q9R0E1 28-741)
chain: SDRPRGANAVNPDKLLVITVATAETEGYRRFLQSAEFFNYTVRTLGLGQEWRGGDVARTVGGGQKVRWLKKEMEKYADQKDMIIMFVDSYDVILASSPTELLKKFVQSGSHLLFSAESFCWPEWGLAEQYPEVGMGKRFLNSGGFIGFAPTIHQIVRQWNYKDDDDDQLFYTQLYLDPGLREKLKLSLDHKSRIFQNLNGALDEVILKFDQNRVRIRNVAYDTLPVVVHGNGPTKLQLNYLGNYVPNGWTPQGGCGFCNQTLRTLPGGQPPPRVLLAVFVEQPTPFLPRFLQRLLLLDYPPDRISLFLHNSEVYHEPHIADAWPQLQDHFSAVKLVGPEEALSAGEARDMAMDSCRQNPECEFYFSLDADAVLTNPETLRVLIEQNRKVIAPMLSRHGKLWSNFWGALSPNEYYARSEDYVELVQRKRVGVWNVPYISQAYVIRGETLRTELPQKEVFSSSDTDPDMAFCKSVRDKGIFLHLSNQHEFGRLLATSRYDTDHLHPDLWQIFDNPVDWREQYIHENYSRALDGEGLVEQPCPDVYWFPLLTEQMCDELVEEMEHYGQWSGGRHEDSRLAGGYENVPTVDIHMKQVGYEDQWLQLLRTYVGPMTEYLFPGYHTKTRAVMNFVVRYRPDEQPSLRPHHDSSTFTLNVALNHKGVDYEGGGCRFLRYDCRISSPRKGWALLHPGRLTHYHEGLPTTRGTRYIMVSFVDP

- binding [4]: binds
B2: Caveolin 1 (protein, UniProt P49817 1-178)
chain: MSGGKYVDSEGHLYTVPIREQGNIYKPNNKAMADEVTEKQVYDAHTKEIDLVNRDPKHLNDDVVKIDFEDVIAEPEGTHSFDGIWKASFTTFTVTKYWFYRLLSTIFGIPMALIWGIYFAILSFLHIWAVVPCIKSFLIEIQCISRVYSIYVHTFCDPLFEAIGKIFSNIRISTQKEI

- binding [3]: binds
B3: Malectin (protein, UniProt Q6ZQI3 31-291)
chain: PGLGVVGAAGAGLPESVIWAVNAGGEAHVDVHGIHFRKDPLEGRVGRASDYGMKLPILRSTPEDQILYQTERYNEETFGYEVPVKEEGDYVLVLKFAEVYFAQSQQKVFDVRLNGHVVVKDLDIFDRVGHSTAHDEIIPMSIRKGKLSVRGEVSTFTGKLYIEFVKGYYDNPKVCALYILAGTVDDVPKLQPHPGLEKKEEEEEEEEYDEGSNLKRQTNKNRVQSGPRTPNPYASDNSSLMFPILVAFGVFIPTLFCLCRL
